Results taken from the supplement of paper PMC9446081.
Among all 39,000 compounds or so, about 220 (0.56%) showed activity. Some of the results follow.

tested on: Escherichia coli K-12 BW25113; assay: relative growth (OD600 normalised to plate interquartile mean) (fraction); higher = less growth inhibition, active = 0.2 or less; details: 50 µM; LB; incubation time: overnight (16-24 h)
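Note: static incubation at 37 °C against the wild-type strain, values averaged over two biological replicates.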

Row | SMILES | relative growth
1 | C[C@@H]1CN([C@H](C)CO)S(=O)(=O)c2ccc(Br)cc2O[C@@H]1CN(C)CC1CCOCC1 | inactive: 0.989
2 | O=C1Nc2ccccc2Oc2cc(Sc3ccccc3)ccc21 | inactive: 1.04
3 | Cc1ccccc1-c1ccc2c(c1)O[C@@H](CN(C)C(=O)Nc1ccc(C(F)(F)F)cc1)[C@@H](C)CN([C@@H](C)CO)S2(=O)=O | inactive: 0.999
4 | Cc1ccc(S[C@]2(C(=O)NCC(F)(F)F)CC(=O)N(Cc3ccccc3)[C@@H]2c2ccc(CO)cc2I)cc1 | inactive: 0.999
5 | CC(=O)NCCCC[C@@H]1NC(=O)[C@H]2C[C@@H](C(=O)NCCCC[N+](C)(C)C)[C@@H](c3ccc(O)cc3)N2C1=O | inactive: 0.987
6 | CC[C@H]1OC(=O)[C@H](C)[C@@H](O[C@H]2C[C@@](C)(OC)[C@@H](O)[C@H](C)O2)[C@H](C)[C@@H](O[C@@H]2O[C@H](C)C[C@H](N(C)C)[C@H]2O)[C@](C)(O)C[C@@H](C)CN(C)[C@H](C)[C@@H](O)[C@]1(C)O | active: 0.0562
7 | C[C@H]1CN([C@@H](C)CO)C(=O)c2c(c3ccccc3n2C)-c2ccccc2CO[C@H]1CN(C)Cc1ccccc1 | inactive: 0.971
8 | O=c1cccc2[nH][nH]cc1-2 | inactive: 1.02
9 | CC(C)[C@H](NC=O)C(=O)OC[C@H](O)[C@H](O)[C@H](O)[C@H](O)COC(=O)[C@H](NC=O)C(C)C | inactive: 0.981
10 | COc1ccc(S(=O)(=O)Nc2ccc3c(c2)C(=O)N([C@H](C)CO)C[C@H](C)[C@@H](CN(C)C(=O)NC2CCCCC2)OCCCC[C@@H](C)O3)cc1 | inactive: 1
11 | C[C@H]1CN([C@@H](C)CO)C(=O)Cc2cc(NC(=O)Nc3ccc(F)cc3)ccc2O[C@@H]1CN(C)Cc1ccc(C(F)(F)F)cc1 | inactive: 1.07
12 | CC(=O)O | inactive: 1.01
13 | C[C@@H]1CN([C@@H](C)CO)C(=O)c2cc(C#Cc3cccnc3)cnc2O[C@@H]1CN(C)S(=O)(=O)c1ccccc1F | inactive: 0.988
14 | C[C@@H]1CCCCO[C@@H](CN(C)C(=O)NC2CCCCC2)[C@H](C)CN([C@@H](C)CO)C(=O)c2cc(NC(=O)Nc3ccc(C(F)(F)F)cc3)ccc2O1 | inactive: 1.02
15 | c1ccc(-n2cncn2)c(Cn2cnnc2)c1 | inactive: 0.991
16 | COc1ccc(S(=O)(=O)N[C@H]2CC[C@@H](CCNC(=O)CN3CCOCC3)O[C@@H]2CO)cc1 | inactive: 1.03
17 | COc1ccc(S(=O)(=O)Nc2ccc3c(c2)C(=O)N([C@H](C)CO)C[C@H](C)[C@H](CN(C)Cc2ccc(Cl)c(Cl)c2)OCCCC[C@H](C)O3)cc1 | inactive: 0.916
18 | C[C@H](CO)N1C[C@H](C)[C@@H](CN(C)S(=O)(=O)c2ccc(F)cc2)Oc2ccc(NS(C)(=O)=O)cc2C1=O | inactive: 0.997
19 | C[C@@H]1CCCCO[C@H](CN(C)Cc2ccc(C(=O)O)cc2)[C@@H](C)CN([C@H](C)CO)C(=O)c2cc(NC(=O)Cc3ccccc3)ccc2O1 | inactive: 0.998
20 | COc1ccc2c3c(n(c2c1)C)[C@@H](CO)N(C[C@]13CCN(CC1)C(=O)c1ccccc1F)C(=O)Nc1ccc(cc1)F | inactive: 1.03

Row | SMILES | relative growth
21 | C[C@@H]1CN([C@@H](C)CO)C(=O)c2cccc(NC(=O)CCCCCC(=O)Nc3ccccc3N)c2O[C@H]1CN(C)C(=O)Nc1cccc2ccccc12 | inactive: 0.982
22 | C[C@@H]1CN([C@H](C)CO)C(=O)c2cccc(NC(=O)Nc3cccc4ccccc34)c2O[C@H]1CN(C)C(=O)Nc1ccccc1 | inactive: 1.05
23 | O=C(NCCCN1CCOCC1)[C@@H]1[C@@H](CO)[C@@H]2Cn3c(cccc3=O)[C@H]1N2C(=O)C1CCCC1 | inactive: 0.997
24 | C[C@@H]1CN([C@H](C)CO)C(=O)c2cc(NC(=O)CCC(F)(F)F)ccc2O[C@@H](C)CCCCO[C@@H]1CN(C)Cc1ccc(C(=O)O)cc1 | inactive: 1.05
25 | CCOC[C@@H](O)CN | inactive: 1.03
26 | C[C@@H]1CN([C@H](C)CO)C(=O)Cc2cc(NC(=O)CCC(F)(F)F)ccc2O[C@@H]1CN(C)S(=O)(=O)c1ccccc1 | inactive: 0.994
27 | C[C@H]1CCCCO[C@H](CN(C)C(=O)Nc2ccc(C(F)(F)F)cc2)[C@@H](C)CN([C@@H](C)CO)C(=O)c2cc(NC(=O)Nc3ccc4c(c3)OCO4)ccc2O1 | inactive: 0.987
28 | C[C@H]1CN([C@@H](C)CO)S(=O)(=O)c2ccc(-c3cncnc3)cc2O[C@H]1CN(C)C(=O)c1ccc2c(c1)OCO2 | inactive: 1.04
29 | COc1ccc(NC(=O)Nc2ccc3c(c2)C(=O)N([C@@H](C)CO)C[C@@H](C)[C@@H](CN(C)Cc2ccc(C(=O)Nc4ccccc4N)cc2)O3)cc1 | inactive: 1
30 | CCOC(=O)N(C)C[C@H]1OCc2cn(nn2)CCCC(=O)N([C@H](C)CO)C[C@H]1C | inactive: 0.998
31 | Cc1ccc(S(=O)(=O)Nc2ccc3c(c2)C(=O)N([C@H](C)CO)C[C@H](C)[C@H](CN(C)CC2CCCCC2)OCCCC[C@@H](C)O3)cc1 | inactive: 1.01
32 | Oc1ccc2ccccc2c1 [beta-NAPHTHOL] | inactive: 0.764
33 | CC(C)NC(=O)Nc1ccc2c(c1)CC(=O)N([C@H](C)CO)C[C@H](C)[C@@H](CN(C)Cc1ccc(C(=O)O)cc1)O2 | inactive: 0.995
34 | C[C@@H]1CN([C@H](C)CO)C(=O)c2cc(-c3ccc(C(=O)N(C)C)cc3)cnc2O[C@H]1CN(C)C(=O)c1cccnc1 | inactive: 0.968
35 | C[C@H](CO)N1C[C@H](C)[C@@H](CN(C)S(=O)(=O)c2cn(C)cn2)Oc2ccc(NC(=O)CCCCCC(=O)Nc3ccccc3N)cc2C1=O | inactive: 0.997
36 | CC(C)NC(=O)Nc1ccc2c(c1)C(=O)N([C@H](C)CO)C[C@@H](C)[C@@H](CN(C)Cc1ccccc1)OCCCC[C@H](C)O2 | inactive: 1
37 | Nc1ccon1 | inactive: 0.994
38 | CCc1nc2ccc(C(=O)N3CCN(C(=O)c4ccco4)CC3)cn2c1N(C=O)Cc1ccc(OC)cc1 | inactive: 0.971
39 | COc1ccc(S(=O)(=O)Nc2ccc3c(c2)CC(=O)N([C@@H](C)CO)C[C@H](C)[C@H](CN(C)Cc2ccc(C(=O)O)cc2)O3)cc1 | inactive: 1
